Measured values from patent publication US20220411483A1 (Chugai, published 2022).

T1: FcγRIIa R type extracellular domain, His tag (human, UniProt P12318 34-217)
T1 construct: extracellular domain; also called FcgRIIaR
T1 sequence (looked up): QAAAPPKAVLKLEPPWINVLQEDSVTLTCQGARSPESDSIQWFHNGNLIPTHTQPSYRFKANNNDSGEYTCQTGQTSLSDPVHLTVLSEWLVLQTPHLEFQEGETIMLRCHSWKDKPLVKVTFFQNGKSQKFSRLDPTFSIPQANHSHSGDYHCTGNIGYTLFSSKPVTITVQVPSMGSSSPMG

T2: FcγRIIb extracellular domain, His tag (human, UniProt P31994 43-217)
T2 construct: extracellular domain; also called FcgRIIb
T2 sequence (looked up): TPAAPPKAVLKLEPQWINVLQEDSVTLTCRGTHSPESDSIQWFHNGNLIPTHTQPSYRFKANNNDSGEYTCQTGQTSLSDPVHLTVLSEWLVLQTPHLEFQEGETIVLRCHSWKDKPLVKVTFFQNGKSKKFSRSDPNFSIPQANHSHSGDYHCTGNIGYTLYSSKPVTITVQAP

T3: FcγRIIa H type extracellular domain, His tag (human, UniProt P12318 34-217)
T3 construct: extracellular domain; also called FcgRIIaH
T3 sequence (looked up): T1 sequence (looked up) with R134H

B1: IL6R-P597/IL6R-L (antibody, human IgG1, kappa)
heavy: QVQLQESGPGLVKPSETLSLTCAVSGHSISHDHAWSWVRQPPGEGLEWIGFISYSGITNYNPSLQGRVTISRDNSKNTLYLQMNSLRAEDTAVYYCARSLARTTAMDYWGEGTLVTVSS[human IgG1 constant region with P238D Y296H (EU numbers) not shown]
light: DIQMTQSPSSLSASVGDRVTITCRASQDISSYLNWYQQKPGKAPKLLIYYTSRLHSGVPSRFSGSGSGTDFTFTISSLQPEDIATYYCQQGNTLPYTFGQGTKVEIKRTVAAPSVFIFPPSDEQLKSGTASVVCLLNNFYPREAKVQWKVDNALQSGNSQESVTEQDSKDSTYSLSSTLTLSKADYEKHKVYACEVTHQGLSSPVTKSFNRGEC
B2: IL6R-P721/IL6R-L (antibody, human IgG1, kappa)
heavy: QVQLQESGPGLVKPSETLSLTCAVSGHSISHDHAWSWVRQPPGEGLEWIGFISYSGITNYNPSLQGRVTISRDNSKNTLYLQMNSLRAEDTAVYYCARSLARTTAMDYWGEGTLVTVSS[human IgG1 constant region with P238D A330H (EU numbers) not shown]
light: B1 light
B3: IL6R-P723/IL6R-L (antibody, human IgG1, kappa)
heavy: QVQLQESGPGLVKPSETLSLTCAVSGHSISHDHAWSWVRQPPGEGLEWIGFISYSGITNYNPSLQGRVTISRDNSKNTLYLQMNSLRAEDTAVYYCARSLARTTAMDYWGEGTLVTVSS[human IgG1 constant region with L235F P238D (EU numbers) not shown]
light: B1 light
B4: IL6R-P594/IL6R-L (antibody, human IgG1, kappa)
heavy: QVQLQESGPGLVKPSETLSLTCAVSGHSISHDHAWSWVRQPPGEGLEWIGFISYSGITNYNPSLQGRVTISRDNSKNTLYLQMNSLRAEDTAVYYCARSLARTTAMDYWGEGTLVTVSS[human IgG1 constant region with P238D F241L (EU numbers) not shown]
light: B1 light
B5: IL6R-P722/IL6R-L (antibody, human IgG1, kappa)
heavy: QVQLQESGPGLVKPSETLSLTCAVSGHSISHDHAWSWVRQPPGEGLEWIGFISYSGITNYNPSLQGRVTISRDNSKNTLYLQMNSLRAEDTAVYYCARSLARTTAMDYWGEGTLVTVSS[human IgG1 constant region with P238D A330Y (EU numbers) not shown]
light: B1 light
B6: IL6R-P598/IL6R-L (antibody, human IgG1, kappa)
heavy: QVQLQESGPGLVKPSETLSLTCAVSGHSISHDHAWSWVRQPPGEGLEWIGFISYSGITNYNPSLQGRVTISRDNSKNTLYLQMNSLRAEDTAVYYCARSLARTTAMDYWGEGTLVTVSS[human IgG1 constant region with P238D Y296N (EU numbers) not shown]
light: B1 light
B7: IL6R-P599/IL6R-L (antibody, human IgG1, kappa)
heavy: QVQLQESGPGLVKPSETLSLTCAVSGHSISHDHAWSWVRQPPGEGLEWIGFISYSGITNYNPSLQGRVTISRDNSKNTLYLQMNSLRAEDTAVYYCARSLARTTAMDYWGEGTLVTVSS[human IgG1 constant region with P238D V323I (EU numbers) not shown]
light: B1 light
B8: IL6R-P596/IL6R-L (antibody, human IgG1, kappa)
heavy: QVQLQESGPGLVKPSETLSLTCAVSGHSISHDHAWSWVRQPPGEGLEWIGFISYSGITNYNPSLQGRVTISRDNSKNTLYLQMNSLRAEDTAVYYCARSLARTTAMDYWGEGTLVTVSS[human IgG1 constant region with P238D Q295M (EU numbers) not shown]
light: B1 light
B9: IL6R-P718/IL6R-L (antibody, human IgG1, kappa)
heavy: QVQLQESGPGLVKPSETLSLTCAVSGHSISHDHAWSWVRQPPGEGLEWIGFISYSGITNYNPSLQGRVTISRDNSKNTLYLQMNSLRAEDTAVYYCARSLARTTAMDYWGEGTLVTVSS[human IgG1 constant region with P238D H268P (EU numbers) not shown]
light: B1 light

Target: T1, FcγRIIa R type extracellular domain, …
Test: SPR, KD ratio

Relative FcgRIIaR-binding Activity | Binder
0.048 fold of IL6R-G1d/IL6R-L | B1
0.044 fold of IL6R-G1d/IL6R-L | B2
0.044 fold of IL6R-G1d/IL6R-L | B3
0.032 fold of IL6R-G1d/IL6R-L | B4
0.041 fold of IL6R-G1d/IL6R-L | B5

Target: T4, FcγRIIIa V type extracellular domain, His tag (human, UniProt P08637 fragment)
T4 construct: extracellular domain; also called FcgRIIIaV
Test: SPR, KD ratio

T4 sequence (P08637 17-208 F176V): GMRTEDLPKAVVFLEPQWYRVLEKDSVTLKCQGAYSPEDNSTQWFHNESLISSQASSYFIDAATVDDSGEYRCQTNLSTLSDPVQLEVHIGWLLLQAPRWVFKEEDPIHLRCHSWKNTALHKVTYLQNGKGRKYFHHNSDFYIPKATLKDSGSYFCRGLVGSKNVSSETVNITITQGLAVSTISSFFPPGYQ

Relative FcgRIIIaV-binding Activity | Binder
0.008 fold of IL6R-G1d/IL6R-L | B1
0.006 fold of IL6R-G1d/IL6R-L | B2
0.009 fold of IL6R-G1d/IL6R-L | B3
0.005 fold of IL6R-G1d/IL6R-L | B4
0.007 fold of IL6R-G1d/IL6R-L | B5

Target: T5, FcγRIa extracellular domain, His tag (human, UniProt P12314 16-292)
T5 construct: whole entry named; also called FcgRIa
Test: SPR, KD ratio

Relative FcgRIa-binding Activity | Binder
0.0194 fold of IL6R-G1d/IL6R-L | B1
0.0183 fold of IL6R-G1d/IL6R-L | B2
0.0004 fold of IL6R-G1d/IL6R-L | B3
0.0236 fold of IL6R-G1d/IL6R-L | B4
0.0236 fold of IL6R-G1d/IL6R-L | B5

Target: T2, FcγRIIb extracellular domain, His tag
Test: SPR, KD ratio

Relative FcgRIIb-binding Activity | Binder
2.64 fold of IL6R-G1d/IL6R-L | B1
2.84 fold of IL6R-G1d/IL6R-L | B2
2.45 fold of IL6R-G1d/IL6R-L | B3
1.77 fold of IL6R-G1d/IL6R-L | B4
1.76 fold of IL6R-G1d/IL6R-L | B5

Target: T3, FcγRIIa H type extracellular domain, …
Test: SPR, KD ratio

Relative FcgRIIaH-binding Activity | Binder
0.012 fold of IL6R-G1d/IL6R-L | B1
0.011 fold of IL6R-G1d/IL6R-L | B2
0.011 fold of IL6R-G1d/IL6R-L | B3
0.009 fold of IL6R-G1d/IL6R-L | B4
0.01 fold of IL6R-G1d/IL6R-L | B5

Target: T1, FcγRIIa R type extracellular domain, …
Test: SPR, bound amount per captured antibody

Relative FcgRIIaR-binding Activity | Binder
31.6 % of IL6R-G1d/IL6R-L | B6
30.9 % of IL6R-G1d/IL6R-L | B7
32.2 % of IL6R-G1d/IL6R-L | B8
27.3 % of IL6R-G1d/IL6R-L | B1
24.1 % of IL6R-G1d/IL6R-L | B2
24 % of IL6R-G1d/IL6R-L | B3
19.8 % of IL6R-G1d/IL6R-L | B4
22.5 % of IL6R-G1d/IL6R-L | B5

Target: T2, FcγRIIb extracellular domain, His tag
Test: SPR, bound amount per captured antibody

Relative FcgRIIb-binding Activity | Binder
149 % of IL6R-G1d/IL6R-L | B6
149 % of IL6R-G1d/IL6R-L | B7
144 % of IL6R-G1d/IL6R-L | B8
140 % of IL6R-G1d/IL6R-L | B1
140 % of IL6R-G1d/IL6R-L | B2
128 % of IL6R-G1d/IL6R-L | B3
111 % of IL6R-G1d/IL6R-L | B4
130 % of IL6R-G1d/IL6R-L | B5

Target: T5, FcγRIa extracellular domain, His tag
Test: SPR kinetics, antibody captured

T5 sequence (P12314 16-292): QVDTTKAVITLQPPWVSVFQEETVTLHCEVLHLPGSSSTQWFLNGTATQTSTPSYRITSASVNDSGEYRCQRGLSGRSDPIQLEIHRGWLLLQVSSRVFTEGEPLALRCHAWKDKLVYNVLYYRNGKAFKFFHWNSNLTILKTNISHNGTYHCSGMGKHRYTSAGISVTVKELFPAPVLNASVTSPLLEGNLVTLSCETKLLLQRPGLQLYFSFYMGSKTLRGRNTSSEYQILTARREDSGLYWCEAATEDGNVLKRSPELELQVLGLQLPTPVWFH

Kd [nM] | Binder
17 | B1
18 | B2
860 | B3
14 | B4
14 | B5

Target: T2, FcγRIIb extracellular domain, His tag
Test: SPR kinetics, antibody captured

Kd [nM] | Binder
2000 | B1
3200 | B9
1800 | B2
2100 | B3
2900 | B4
2900 | B5

Substitutions are numbered along the chain they refer to.
